Screen size: about 45,000 compounds; about 65 (0.1%) were called active. Calls come from the whole dose curve; as a rule, active = well fitted activation curve with a large enough effect; inconclusive = small, poorly fitted or top-dose-only effect; inactive = no such curve, though single readings can be large or run the other way. Some of the results follow.
Target: Galactocerebrosidase (Homo sapiens) (UniProt P54803)
Experiment: A Novel Cell-Based Assay to Identify Small Molecules for B -Galactocerebrosidase; note: 0% is about no effect; nearly all actives have a fitted effect of over 65% in size
Conditions: 145M-Twi-hGALC-G270D cells (Twitcher mouse brain line with human GALC G270D), HMU-beta-Gal fluorescence, 48 h; series mostly up to 57.5 µM; activation: at the top concentration
Outline: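 Brain-derived Twitcher mouse 145M-Twi cells stably expressing human GALC-G270D or wild-type GALC, treated live, then residual GALC activity read by fluorescence of HMU-b-Gal substrate (0.1 mM final) in citrate-phosphate buffer pH 5.2 with sodium taurocholate. Signal increase indicates enhancement.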

Chain of UniProt P54803 (P54803 whole entry, looked up): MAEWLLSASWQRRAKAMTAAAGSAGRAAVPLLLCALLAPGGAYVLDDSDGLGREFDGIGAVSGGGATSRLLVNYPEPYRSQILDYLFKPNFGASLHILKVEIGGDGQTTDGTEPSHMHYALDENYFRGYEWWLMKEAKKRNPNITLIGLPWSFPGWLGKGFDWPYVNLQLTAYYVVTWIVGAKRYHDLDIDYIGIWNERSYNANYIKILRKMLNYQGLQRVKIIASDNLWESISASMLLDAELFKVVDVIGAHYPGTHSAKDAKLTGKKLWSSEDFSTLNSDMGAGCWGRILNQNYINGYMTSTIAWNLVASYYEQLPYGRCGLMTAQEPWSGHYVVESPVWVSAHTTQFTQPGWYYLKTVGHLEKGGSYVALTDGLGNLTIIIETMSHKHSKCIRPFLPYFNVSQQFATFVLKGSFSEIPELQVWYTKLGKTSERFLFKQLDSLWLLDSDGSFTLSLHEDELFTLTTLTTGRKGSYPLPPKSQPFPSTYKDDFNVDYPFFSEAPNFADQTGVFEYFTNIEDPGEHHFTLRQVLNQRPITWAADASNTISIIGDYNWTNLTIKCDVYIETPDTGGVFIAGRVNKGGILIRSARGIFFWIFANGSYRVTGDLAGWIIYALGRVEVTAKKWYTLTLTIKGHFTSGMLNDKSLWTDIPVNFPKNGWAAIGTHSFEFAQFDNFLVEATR

activation, inactive:
Oc1c(C(c2ccccc2F)N2CCN(c3ccccc3F)CC2)sc2nc(-c3ccco3)nn12 (stereo unspecified) -2.06%, Cc1ccccc1N1CCN(S(=O)(=O)c2ccccc2)CC1 -14.3%, Cc1ccc(-c2nc(SCC(=O)NCC3CCCO3)c3c(=O)n(C)c(=O)n(C)c3n2)cc1 (stereo unspecified) -8.97%, Cc1cc(OCCn2c(CCNC(=O)C3CCCCC3)nc3ccccc32)ccc1Cl -17.9%, COc1ccc(CNC(=O)CCC2N=C3c4ccccc4N=C(SCc4ccccc4F)N3C2=O)cc1 (stereo unspecified) -16.2%, Cc1cc(C)c(NC(=O)CSc2nccn2-c2cccc(Cl)c2)c(C)c1 -15.3%, COc1ccc(C)cc1NS(=O)(=O)c1ccc2c3c(cccc13)C(=O)N2 -3.91%, COc1ccccc1Cn1ccn(Cc2ccc(C)cc2)c(=O)c1=O -3.62%, Cc1ccccc1OCc1nc2c3cnn(-c4ccccc4F)c3ncn2n1 -6.17%, COCCNC(=O)CSc1nc2cc3c(cc2c(=O)n1CCCC(=O)NCc1ccc2c(c1)OCO2)OCO3 -1.61%, O=C(NC1CCCC1)c1ccc2c(=O)n(Cc3ccccc3)c(SCc3cccc([N+](=O)[O-])c3)nc2c1 6.78%, Cc1ccccc1NC(=O)CSc1nc(-c2ccccc2)cn1-c1ccccc1F -17.8%, COc1cccc(-n2c(-c3ccccc3F)nc3c(cnn3-c3ccc(C)cc3)c2=O)c1 -5.72%, CCOC(=O)C(Cc1ccccc1)NC(=O)CCc1c(C)nc2nc(C)nn2c1C (stereo unspecified) -0.411%, COc1ccc(NC(=O)c2sc3nc4c(cc3c2N)CCCCCC4)cc1 -17.7%, Cc1ccc(Cl)cc1N1CCN(C(=O)Cn2c(-c3cccs3)cc3cc(F)ccc32)CC1 0.971%, CCOC(=O)Cn1c(=O)cc(C(F)(F)C(F)(F)F)c2c(C)nn(CC)c21 -9.7%, CCc1ccc(OCC(=O)Nc2cc(-c3ccc(C)cc3)no2)cc1 -9.82%, COc1ccc(CNC(=O)CSc2ncc3c(n2)-c2cc(Cl)ccc2N(Cc2ccccc2)S3(=O)=O)cc1 -7.9%, Cc1ccc(OCC(=O)Nc2ccc3nc(SCC(=O)Nc4ccc(C)cc4C)sc3c2)cc1 -19.1%, CC(C)(C)c1ccc(C(=O)NC2(C(F)(F)F)NC(=O)N(CCc3ccccc3)C2=O)cc1 (stereo unspecified) -1.69%, CCCNC(=O)c1ccccc1NC(=O)c1nsc2ccccc12 -5.19%, COc1cccc(NC(=O)CSc2ncc3c(n2)-c2ccc(Cl)cc2N(C)S3(=O)=O)c1 -2.92%, COC(=O)c1sccc1S(=O)(=O)N1CCN(c2ccc(C)cc2C)CC1 -12.1%, Cc1c(Cl)cccc1NC(=O)N1CCOc2ccccc21 -20.9%, CCOc1ccc(CNC(=O)C2CCN(C(=O)N3CC(CC)Oc4ccccc43)CC2)cc1 (stereo unspecified) 2.95%, CCOc1ccccc1NC(=O)C(=O)NCCc1sc2nc(-c3ccc(OC)cc3)nn2c1C -12.3%, CCOc1ccc(CNC(=O)c2ccccc2NC(=O)c2nsc3ccccc23)cc1 -23.9%, Cc1ccc(NC(=O)NCCOCCn2c(=O)oc3ccccc32)cc1C -13.4%, Cc1c(-c2ccc(Cl)cc2)c(=O)oc2c(CN3CCN(CCO)CC3)c(O)ccc12 -2.94%, CCOc1ccc(CCNC(=O)c2cc3c(=O)n(C)c4ccccc4c3n2C)cc1OCC -4.66%, COc1ccc(S(=O)(=O)N(CC(=O)Nc2cc(C)ccc2OC)Cc2ccccc2)cc1 -7.3%, CCOc1ccccc1NS(=O)(=O)c1ccc2[nH]c3c(c2c1)CCCCC3 12.4%, COC(=O)c1ccc(NC(=O)CN2CCN(S(=O)(=O)c3ccc(Br)cc3)CC2)cc1 -9.82%, Cc1ccc(Cn2c(=O)n(-c3ccc(C)cc3)c(=O)c3c2c2cc(C)ccc2n3C)cc1 -14.7%, CCOc1cc(C2c3c(oc4cc(C)cc(C)c4c3=O)C(=O)N2CCO)ccc1O (stereo unspecified) -13.8%, N#C/C(=C\c1cccc(F)c1)c1nc(-c2cc3c(ccc4ccccc43)oc2=O)cs1 -10.6%, Cc1ccc(NC(=O)Nc2ccc3nc(N4CCN(C)CC4)cc(C)c3c2)cc1F -12%, CSc1cccc(NC(=O)C2CCCN(C(=O)c3cnn(-c4ccc(F)cc4)c3-n3cccc3)C2)c1 (stereo unspecified) -5.48%, CCCN(CCC)CCCNC(=O)C1CCN(c2nc3ccc(CC)cc3s2)CC1 -16%, O=C(CSc1cn(CC(=O)N2CCCCC2)c2ccccc12)NCc1ccc(F)cc1 2.93%, COc1ccc(N2CCN(S(=O)(=O)CCNC(=O)c3cc(=O)c4ccccc4o3)CC2)cc1 -17.5%, CN(C)c1oc(-c2ccc(COc3ccccc3)o2)nc1C#N -20.4%, COc1cc(NC(=O)Cn2ccn(-c3cc(C)cc(C)c3)c(=O)c2=O)cc(OC)c1 -11.2%, Cc1cc(C)cc(NC(=O)CSc2nc(=O)[nH]c3c2CCC3)c1 -5.77%, CC(C)CN(CCNC(=O)c1cn(C)c2ccc(S(=O)(=O)N3CCCCCC3)cc2c1=O)CC(C)C -13.9%, CC(C)(C)c1ccc(Oc2nc3ccccn3c(=O)c2/C=C(\C#N)c2nc3ccccc3s2)cc1 -18.1%, CCc1ccc(NC(=O)CC2C(=O)N(c3ccc(C)cc3)C(=O)N2C2CCCC2)cc1 (stereo unspecified) -34.2%, COc1ccc2c(c1)CCc1sc(NC(=O)c3ccc(Br)cc3)nc1-2 -2.83%, CS(=O)(=O)c1cccc(-c2nnc(NC(=O)c3ccc4c(c3)OCCO4)o2)c1 -10.2%, Cc1ccc(NC(=O)C(Cc2ccccc2)NS(=O)(=O)c2ccc3c(c2)CCC(=O)N3)cc1 (stereo unspecified) -8.42%, Cc1cc(C)cc(NC(=O)CSc2nc3ncccc3[nH]2)c1 -10.3%, Cc1ccc(NC(=O)C(=O)NCC(c2ccc3c(c2)OCO3)N2CCN(C)CC2)c(C)c1 (stereo unspecified) -10.1%, CC(=O)Nc1cccc(Nc2nc3ccccc3n3c(C)nnc23)c1 -11.5%, CCOC(=O)N1CCC(NC(=O)c2cnn(-c3ccc(C)cc3C)c2C2CCN(C(=O)OC(C)(C)C)CC2)CC1 -7.35%, CCc1nn(CCCC(=O)NCc2ccc(C)cc2)c(=O)c2cc3occc3n12 -5.8%, CC(=O)c1nn(-c2ccc(OC(F)(F)F)cc2)nc1Nc1ccccc1 -9.99%, CCCN(CCC)CCCNC(=O)Cn1ncc2c3ccccc3n(Cc3ccccc3F)c2c1=O -7.13%, CCOc1ccccc1N(C)C(=O)Cn1nc(Cc2ccncc2)c2ccccc2c1=O 5.7%, O=C(CN1CCCN(Cc2ccc(F)cc2)S1(=O)=O)Nc1ccc2c(c1)OCCO2 -8.87%, CCOc1ccc(-c2cc(NC(=O)Nc3ccc(Cl)cc3)c(C(=O)OC)s2)cc1 -15.3%, CCCSc1ncc(Cl)c(C(=O)N(Cc2cccc(Cl)c2)C2CCS(=O)(=O)C2)n1 (stereo unspecified) -9.34%, COc1ccc(OC)c(NC(=O)c2cnc(N3CCCCC3)c3ccccc23)c1 -10.6%, CCOC(=O)c1c(NC(=O)CCCOc2ccc(C(C)(C)C)cc2)sc2c1CCCC2 -12.8%, COc1ccccc1C(=O)OCc1cc(=O)n2nc(-c3cccs3)sc2n1 -12.1%, COC(=O)c1ccc(NS(=O)(=O)c2ccc3[nH]c4c(c3c2)CCCC4)cc1 -45.5%, CCC(=O)N1CCc2cc(S(=O)(=O)NCCC(=O)NCc3ccc(C)cc3)ccc21 -11.5%, Cc1cccc(C(c2sc3nc(-c4ccco4)nn3c2O)N2CCN(c3ccccc3F)CC2)c1 (stereo unspecified) 4.75%, CCOC(=O)C1CCCN(S(=O)(=O)c2cc(Br)cc3c2N(C(C)=O)CC3)C1 (stereo unspecified) 2.03%, CN(C)c1ccc(-c2nc(-c3cccs3)c(-c3cccs3)[nH]2)cc1 -9.71%, CN1CCN(CCCN2c3ccccc3Sc3ccc(S(=O)(=O)N(C)C)cc32)CC1 -16.9%, COc1cccc(CNC(=O)CCCn2ncn3c(cc4occc43)c2=O)c1 5.76%, CCCn1c(SCC(O)c2ccccc2)nc2ccccc21 (stereo unspecified) -9.03%, Cc1nn(-c2ccccc2)c2sc(C(=O)Nc3ccc(Br)cc3)cc12 -13.9%, O=C1COc2ccc(-c3cc(-c4ccccc4)c4c(n3)-c3ccccc3OC4)cc2N1 -17.3%, COc1ccc(-c2cc3c(=O)n(CC(=O)Nc4cc(F)ccc4F)ccn3n2)cc1OC -13.1%, CCc1ccc(NC(=O)[C@H](CSCc2ccccc2)N2Cc3ccccc3C2=O)cc1 -4.96%, O=C(NCCc1ccc(Cl)cc1)c1ccc2c(c1)N(Cc1ccc(F)cc1)C(=O)CS2 -4.51%, O=C(Oc1ccc(F)cc1)c1nc(SCc2ccc(F)cc2)ncc1Cl -11.9%, COc1ccc(NC(=O)CCS(=O)(=O)c2ccc3c(c2)oc(=O)n3C)cc1OC -18.5%, CCCCN(Cc1cc2ccccc2[nH]c1=O)C(=O)c1cccc(Cl)c1 -1.21%, COC(=O)c1sc(-c2ccccc2)cc1NC(=O)Nc1ccc(Cl)cc1 -16.2%, CC1=C(C(=O)NCc2ccccc2C)C2(CCCCCC2)OC1=O 1.21%, O=c1[nH]c(=O)n([C@H]2CCCO2)cc1F -16.5%, Cc1ccc(-c2noc(-c3ccccc3NC(=O)C3CC(=O)N(c4ccc(C)cc4)C3)n2)cc1 (stereo unspecified) -21.8%, Cc1ccc(C(=O)NCC(c2ccco2)S(=O)(=O)c2cccs2)cc1C (stereo unspecified) -18%, COc1cc2nc(Nc3cccc(C)c3)nc(N)c2cc1OC -12%, COc1ccc(NC(=O)CCS(=O)(=O)c2ccc3nc(C)sc3c2)cc1Cl -11.5%, Cc1ccc(-n2ncc(C(=O)NCCc3c[nH]c4ccccc34)c2C2CCN(C(=O)OC(C)(C)C)CC2)cc1C -26%, COc1ccc(NC(=O)C(Cc2ccccc2)n2cccc2)cc1OC (stereo unspecified) -16.9%, COc1cc(-c2noc(CCC(=O)Nc3cc(C)ccc3C)n2)cc(OC)c1OC -6.81%, Cc1ccccc1Cn1c2ccccc2c2cnn(CC(=O)NCCc3ccccc3)c(=O)c21 -7.32%, CC(NC(=O)CN(c1ccc(Cl)cc1Cl)S(=O)(=O)c1ccccc1)c1ccccc1 (stereo unspecified) -16.5%, O=C(Cn1c(-c2cccs2)cc2cc(Cl)ccc21)N1CCN(c2ccccc2F)CC1 -14.7%, CCC(=O)Nc1ccc(CC)cc1-c1nc2ccccc2n(Cc2ccccc2)c1=O -24.4%

Potency, inactive:
C[C@@H]1CC(=O)NN=C1c1ccc(NN=C(C#N)C#N)cc1
